Laboratory results from article PMC12390733.
These are yes or no findings as the source states them, for the method shown. In cells and extracts the contact can be indirect. Some binding calls cover weakened binding; strength is not graded here. For some of these results: Where a sequence is shown, tags or fusion partners need not be part of it.

Protein sequences, listed by entry. Tags and fused reporters are not part of them. Residues count along the entry.
UniProt P0C6X1, residues 898-2484: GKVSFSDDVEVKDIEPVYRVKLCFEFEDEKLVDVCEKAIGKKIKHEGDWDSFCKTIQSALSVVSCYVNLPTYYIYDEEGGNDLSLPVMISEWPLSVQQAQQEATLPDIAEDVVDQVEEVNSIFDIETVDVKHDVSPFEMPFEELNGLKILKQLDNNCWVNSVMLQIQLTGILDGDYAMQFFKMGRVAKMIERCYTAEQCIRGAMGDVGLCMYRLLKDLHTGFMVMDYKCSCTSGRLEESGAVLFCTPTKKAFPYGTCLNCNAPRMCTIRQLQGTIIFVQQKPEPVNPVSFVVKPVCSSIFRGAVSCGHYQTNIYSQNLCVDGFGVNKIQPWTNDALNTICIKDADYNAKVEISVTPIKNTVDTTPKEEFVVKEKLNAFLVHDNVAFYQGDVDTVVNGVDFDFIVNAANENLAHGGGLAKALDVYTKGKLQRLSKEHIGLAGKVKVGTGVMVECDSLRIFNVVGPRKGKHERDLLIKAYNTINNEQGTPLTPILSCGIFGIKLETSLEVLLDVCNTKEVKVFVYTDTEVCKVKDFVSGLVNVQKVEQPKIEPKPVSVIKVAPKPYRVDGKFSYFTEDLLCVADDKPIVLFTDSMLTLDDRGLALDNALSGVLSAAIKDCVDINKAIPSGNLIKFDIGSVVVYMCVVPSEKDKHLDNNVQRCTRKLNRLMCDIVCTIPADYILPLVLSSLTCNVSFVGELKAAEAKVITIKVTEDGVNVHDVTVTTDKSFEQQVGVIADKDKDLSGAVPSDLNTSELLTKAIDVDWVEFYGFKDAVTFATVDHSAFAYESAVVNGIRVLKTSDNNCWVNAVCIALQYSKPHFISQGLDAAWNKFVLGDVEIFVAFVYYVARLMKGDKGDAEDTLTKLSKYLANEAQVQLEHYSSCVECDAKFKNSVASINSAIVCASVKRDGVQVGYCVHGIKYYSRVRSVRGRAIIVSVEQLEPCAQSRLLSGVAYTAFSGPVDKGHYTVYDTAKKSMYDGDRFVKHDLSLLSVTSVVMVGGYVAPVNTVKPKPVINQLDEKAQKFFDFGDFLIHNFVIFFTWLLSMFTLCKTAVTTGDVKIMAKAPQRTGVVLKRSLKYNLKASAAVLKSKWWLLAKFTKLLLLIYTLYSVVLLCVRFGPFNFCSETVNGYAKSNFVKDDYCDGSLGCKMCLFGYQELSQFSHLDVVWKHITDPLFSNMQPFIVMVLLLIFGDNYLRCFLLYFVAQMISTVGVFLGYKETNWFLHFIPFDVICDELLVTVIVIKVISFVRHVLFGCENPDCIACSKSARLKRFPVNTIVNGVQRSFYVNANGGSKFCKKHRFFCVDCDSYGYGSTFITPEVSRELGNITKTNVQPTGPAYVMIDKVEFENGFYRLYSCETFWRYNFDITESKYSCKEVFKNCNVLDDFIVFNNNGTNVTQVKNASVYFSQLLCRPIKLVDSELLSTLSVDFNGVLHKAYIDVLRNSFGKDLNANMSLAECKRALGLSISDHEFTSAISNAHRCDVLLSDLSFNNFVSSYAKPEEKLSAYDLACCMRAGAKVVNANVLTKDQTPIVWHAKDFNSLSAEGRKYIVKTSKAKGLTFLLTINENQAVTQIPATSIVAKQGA

What was measured:
[1] = molecular target: GFP-tagged SARS-CoV-2 nonstructural protein 3 (NSP3) (SARS-CoV-2) (UniProt P0DTD1); assay: pull-down; only the binder purified
[2] = molecular target: SARS-CoV-2 NSP3 made in VLP-infected cells (SARS-CoV-2) (UniProt P0DTD1); assay: co-IP
[3] = molecular target: SARS-CoV-2 NSP8 made in VLP-infected cells (SARS-CoV-2) (UniProt P0DTD1); assay: co-IP
[4] = molecular target: HCoV-229E NSP3 (HCoV-229E) (UniProt P0C6X1); assay: co-IP

B1: His-tagged DNAJC11 protein, purified (protein, UniProt Q9NVH1 1-559)
chain: MATALSEEELDNEDYYSLLNVRREASSEELKAAYRRLCMLYHPDKHRDPELKSQAERLFNLVHQAYEVLSDPQTRAIYDIYGKRGLEMEGWEVVERRRTPAEIREEFERLQREREERRLQQRTNPKGTISVGVDATDLFDRYDEEYEDVSGSSFPQIEINKMHISQSIEAPLTATDTAILSGSLSTQNGNGGGSINFALRRVTSAKGWGELEFGAGDLQGPLFGLKLFRNLTPRCFVTTNCALQFSSRGIRPGLTTVLARNLDKNTVGYLQWRWGIQSAMNTSIVRDTKTSHFTVALQLGIPHSFALISYQHKFQDDDQTRVKGSLKAGFFGTVVEYGAERKISRHSVLGAAVSVGVPQGVSLKVKLNRASQTYFFPIHLTDQLLPSAMFYATVGPLVVYFAMHRLIIKPYLRAQKEKELEKQRESAATDVLQKKQEAESAVRLMQESVRRIIEAEESRMGLIIVNAWYGKFVNDKSRKSEKVKVIDVTVPLQCLVKDSKLILTEASKAGLPGFYDPCVGEEKNLKVLYQFRGVLHQVMVLDSEALRIPKQSHRIDTDG
binding [1]: binds

B2: endogenous DNAJC11 (Calu-3-N cells) (protein, UniProt Q9NVH1 1-559)
chain: MATALSEEELDNEDYYSLLNVRREASSEELKAAYRRLCMLYHPDKHRDPELKSQAERLFNLVHQAYEVLSDPQTRAIYDIYGKRGLEMEGWEVVERRRTPAEIREEFERLQREREERRLQQRTNPKGTISVGVDATDLFDRYDEEYEDVSGSSFPQIEINKMHISQSIEAPLTATDTAILSGSLSTQNGNGGGSINFALRRVTSAKGWGELEFGAGDLQGPLFGLKLFRNLTPRCFVTTNCALQFSSRGIRPGLTTVLARNLDKNTVGYLQWRWGIQSAMNTSIVRDTKTSHFTVALQLGIPHSFALISYQHKFQDDDQTRVKGSLKAGFFGTVVEYGAERKISRHSVLGAAVSVGVPQGVSLKVKLNRASQTYFFPIHLTDQLLPSAMFYATVGPLVVYFAMHRLIIKPYLRAQKEKELEKQRESAATDVLQKKQEAESAVRLMQESVRRIIEAEESRMGLIIVNAWYGKFVNDKSRKSEKVKVIDVTVPLQCLVKDSKLILTEASKAGLPGFYDPCVGEEKNLKVLYQFRGVLHQVMVLDSEALRIPKQSHRIDTDG
binding [2]: binds | binding [3]: no binding

B3: Myc-tagged DNAJC11 (DnaJ homolog subfamily C member 11) (protein, UniProt Q9NVH1 1-559)
chain: MATALSEEELDNEDYYSLLNVRREASSEELKAAYRRLCMLYHPDKHRDPELKSQAERLFNLVHQAYEVLSDPQTRAIYDIYGKRGLEMEGWEVVERRRTPAEIREEFERLQREREERRLQQRTNPKGTISVGVDATDLFDRYDEEYEDVSGSSFPQIEINKMHISQSIEAPLTATDTAILSGSLSTQNGNGGGSINFALRRVTSAKGWGELEFGAGDLQGPLFGLKLFRNLTPRCFVTTNCALQFSSRGIRPGLTTVLARNLDKNTVGYLQWRWGIQSAMNTSIVRDTKTSHFTVALQLGIPHSFALISYQHKFQDDDQTRVKGSLKAGFFGTVVEYGAERKISRHSVLGAAVSVGVPQGVSLKVKLNRASQTYFFPIHLTDQLLPSAMFYATVGPLVVYFAMHRLIIKPYLRAQKEKELEKQRESAATDVLQKKQEAESAVRLMQESVRRIIEAEESRMGLIIVNAWYGKFVNDKSRKSEKVKVIDVTVPLQCLVKDSKLILTEASKAGLPGFYDPCVGEEKNLKVLYQFRGVLHQVMVLDSEALRIPKQSHRIDTDG
binding [4]: no binding
